Assay results as given in PMC12040169 (PLOS Biology, 2025).
The list shows a part of the results.

test system: T1, C. trachomatis L2/434/Bu expressing GFP (CTL2-GFP); design: species or system HeLa; C. trachomatis total inclusion area by high-content imaging, normalised to DMSO; conditions: total inclusion area; 28.5 h, 10 µM; inhibitor
T1 construct: L2/434/Bu GFP intracellular growth in HeLa cells
Method in brief: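 High-content imaging followed the bulk GFP/resorufin measurement: fixed, Hoechst-stained cells were scored for GFP inclusions and host nuclei per well. Total inclusion area and count served as growth proxies, nuclei number as the viability proxy. MIC calculation matched the bulk assay.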

Structure (SMILES)	% of control remaining
CC1CCN(Cc2ccc(-c3ccc(CC(=O)NCc4ccc(C#N)cc4)cn3)cc2)CC1 [CBK158409]	90.2345
Cc1nc(CC(=O)N2CCCC(c3cccc(Cc4ccc(Cl)cc4)n3)C2)cs1 (stereo not drawn) [CBK286505]	66.4056
CCc1c(C)nc(SC(C(=O)O)c2ccccc2)c(C#N)c1C (stereo not drawn) [CBK270174]	74.4428
CC(=O)Nc1ccc(NC2SC(=O)N(c3ccccc3)C2=O)cc1 (stereo not drawn) [CBK085110]	132.54
Cn1cc(CN[C@@H]2CCC(=O)N[C@H]2c2cc(F)cc(F)c2)cn1 [CBK282913]	83.299
CC(=O)Nc1cccc(-c2cncc(NCCc3ccccn3)n2)c1 [CBK065359]	96.1268
CCOC(=O)N1CCN(CCC(=O)Nc2ccc3c(c2)CCC3)CC1 [CBK264220]	95.5468
C(=N\N=C(/c1ccccc1)C12CN3CN(CN(C3)C1)C2)/c1ccc2c(c1)OCO2 [CBK261816]	104.122
CCc1nc(CN2CCCC(NCc3ccc(C(N)=O)cc3)C2)no1 (stereo not drawn) [CBK305373]	72.9735
Cc1cccc(Oc2ccccc2NS(=O)(=O)c2ccc3c(c2)N(CC(=O)O)C(=O)CO3)c1 [CBK295287]	93.5571
CC(C)Nc1cc(OCCCc2ccncc2)ncn1 [CBK115886]	82.2507
COc1ccc(OC)c(-n2c(=O)[nH]c3ccccc3c2=O)c1 [CBK287825]	63.6246
O=C1c2ccccc2C(=O)N1CCN1CCN(Cc2ccccc2)CC1 [CBK074813]	66.6013
C[C@H]1CN2C[C@H](O)CC2CN1Cc1ccc(Br)s1 (stereo partly drawn) [CBK285439]	106.357
O=C(O)c1ccc(CN2C(=O)COc3ccccc32)o1 [CBK270276]	119.98
CCc1ccc(CN(C)C(=O)COC(=O)c2cc(-c3ccccc3)nc3onc(C)c23)cc1 [CBK295334]	97.0123
Cc1ccn(-c2ccc(N3CCNCC3)nn2)n1 [CBK304680]	95.4378
COc1cccc(CC(=O)N2CCC(Cc3ccccc3-c3cccs3)(C(N)=O)CC2)c1 [CBK285908]	102.972
O=C(Cc1ccccc1)N1CCC(c2nc3ccccc3s2)CC1 [CBK070145]	95.3448
CCc1cccc(C)c1NC(=O)CN(c1ccc(Br)c(C)c1)S(C)(=O)=O [CBK267935]	119.949
CCCCNc1cc(N(C)Cc2cnn(C)c2)nc(N)n1 [CBK304167]	7.8122
CN(C)C(=O)c1cc(Br)cnc1NCc1ccc2c(c1)OCO2 [CBK076293]	55.442
O=C(c1nc2ccccc2s1)C1CCN(C(=O)c2ccco2)CC1 [CBK284234]	83.7658
COc1cc(CNS(=O)(=O)c2cc3c(NCCN(C)C)nccc3s2)cc(OC)c1OC [CBK038246C]	89.9945
CCOC(=O)[C@@]12CC=CCN(C(=O)c3ccco3)[C@@H]1CCC2 [CBK284574]	104.825
COCC(C)NC(=O)c1nn(-c2nc3ccccc3s2)c2ccccc12 (stereo not drawn) [CBK048488]	99.4431

Structure (SMILES)	% of control remaining
CCN(CC)S(=O)(=O)c1ccc(CNC(=O)Cc2ccc(Cl)cc2)cc1 [CBK306188]	85.5606
Cc1ccccc1OCc1nnc(SCC(=O)c2ccc3c(c2)Cc2ccccc2-3)n1C [CBK265829]	117.875
Cc1ccccc1NC(=O)c1cnc2n(c1=O)CCS2 [CBK287374]	106.878
CCCc1n[nH]c(C2CN(CCn3cccn3)CCO2)n1 (stereo not drawn) [CBK304842]	24.1123
COc1ccc(NC(=O)c2ccccc2CCc2ccccc2)c([N+](=O)[O-])c1 [CBK268632]	89.0265
Cn1cc(CCNC(=O)N(Cc2ccccn2)CC2CCCO2)cn1 (stereo not drawn) [CBK306973]	85.0313
COc1ccc(NC(=O)CC2SC(=N)NC2=O)c([N+](=O)[O-])c1 (stereo not drawn) [CBK265334]	96.0681
CCCC1(OC(=O)Nc2ccc(Cl)cc2)CCCCC1 [CBK026295]	67.6737
O=C(O)CCc1ccc(-c2cn3ccnc3c(Nc3ccc(Br)cc3)n2)cc1 [CBK038058]	102.927
O=C(COc1ccc(-c2ccccc2)cc1)N1CCN(S(=O)(=O)c2ccccc2[N+](=O)[O-])CC1 [CBK264154]	121.625
Clc1cncc(OC(c2ccccc2)C2CC2)n1 (stereo not drawn) [CBK176042]	101.983
O=C(O)CC1SC(Nc2cc(C(F)(F)F)cc(C(F)(F)F)c2)=NC1=O (stereo not drawn) [CBK059095]	82.7231
Cn1ncc(C#N)c1NC(=O)C1CC(c2ccc(Cl)c(Cl)c2)=NO1 (stereo not drawn) [CBK267478]	92.4921
O=C(/C=C/c1ccc2c(c1)OCO2)N1CCN(C(=O)c2ccco2)CC1 [CBK144459]	94.429
O=C(O)c1ccc(NS(=O)(=O)Cc2ccccc2[N+](=O)[O-])cc1 [CBK034054]	106.669
COCC(C)NCc1ccccc1C (stereo not drawn) [CBK027852]	69.0995
COc1ccc(NC(=S)NC(=O)CN2C(=O)c3ccccc3C2=O)c([N+](=O)[O-])c1 [CBK267594]	90.2233
O=C(CN1CCCC1)NC1CCCc2c1cnn2-c1ccc(F)cc1 (stereo not drawn) [CBK283930]	82.4137
COc1ccc(Nc2cc(Cl)ccc2C(=O)NC(C)(C)CN2CCOCC2)cn1 [CBK107436]	93.3272
Nc1nc2n(n1)C(c1ccccc1)C1=C(CCCC1)N2 (stereo not drawn) [CBK287949]	101.897
Nc1nnc(Sc2nc3ccccc3nc2C(F)(F)F)s1 [CBK093795]	93.6474
CNC(=O)c1cc(-c2cccc(C)c2)oc1C [CBK047432]	95.485
CC(C)[C@@H](CO)Nc1cncc(-c2ccc(F)cc2F)n1 [CBK065875]	106.785
O=C(c1ccc(F)cc1)C1CCN(Cc2cc(=O)[nH]c(=O)[nH]2)CC1 [CBK149132]	87.3079
Cc1noc(C)c1CN(C)C(C)C(=O)Nc1nccs1 (stereo not drawn) [CBK304826]	36.3642
